{"sequences": {"note": "Sequences of proteins named here, by UniProt entry; tags and fusion partners are left off.", "UniProt Q00987": "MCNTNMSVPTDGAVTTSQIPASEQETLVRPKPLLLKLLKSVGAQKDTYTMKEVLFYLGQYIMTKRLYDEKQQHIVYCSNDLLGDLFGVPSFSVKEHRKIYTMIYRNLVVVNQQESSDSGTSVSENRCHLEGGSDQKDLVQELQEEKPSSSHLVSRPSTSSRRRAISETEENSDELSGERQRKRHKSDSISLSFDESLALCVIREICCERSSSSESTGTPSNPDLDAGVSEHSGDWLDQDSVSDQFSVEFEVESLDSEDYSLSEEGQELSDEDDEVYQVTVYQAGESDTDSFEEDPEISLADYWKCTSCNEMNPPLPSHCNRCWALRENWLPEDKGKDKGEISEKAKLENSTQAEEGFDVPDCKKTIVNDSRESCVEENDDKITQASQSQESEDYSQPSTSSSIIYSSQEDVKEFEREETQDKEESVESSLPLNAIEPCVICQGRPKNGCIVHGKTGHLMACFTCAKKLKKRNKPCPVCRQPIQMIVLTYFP", "UniProt Q9NQB0": "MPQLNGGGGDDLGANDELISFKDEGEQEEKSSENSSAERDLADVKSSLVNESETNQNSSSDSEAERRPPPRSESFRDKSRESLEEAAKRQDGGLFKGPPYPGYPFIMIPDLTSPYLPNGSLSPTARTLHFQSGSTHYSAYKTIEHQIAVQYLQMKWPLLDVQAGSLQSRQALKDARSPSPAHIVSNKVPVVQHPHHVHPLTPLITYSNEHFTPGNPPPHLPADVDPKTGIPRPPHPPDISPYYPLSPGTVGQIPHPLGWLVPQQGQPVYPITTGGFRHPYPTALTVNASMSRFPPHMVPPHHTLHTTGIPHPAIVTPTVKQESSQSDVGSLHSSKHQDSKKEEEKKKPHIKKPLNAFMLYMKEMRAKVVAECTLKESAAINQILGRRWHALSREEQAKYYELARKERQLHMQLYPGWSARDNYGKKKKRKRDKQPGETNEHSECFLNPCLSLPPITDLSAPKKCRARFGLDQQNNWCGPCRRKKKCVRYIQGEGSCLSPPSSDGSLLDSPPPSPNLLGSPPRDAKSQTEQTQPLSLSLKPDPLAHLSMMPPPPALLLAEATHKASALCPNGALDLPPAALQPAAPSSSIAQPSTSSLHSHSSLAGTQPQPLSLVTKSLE"}, "source": "paper PMC4933444", "key": {"HA-tagged HBP1": {"molecular_target": "T1, HA-tagged HBP1 (UniProt O60381)", "T1 sequence": "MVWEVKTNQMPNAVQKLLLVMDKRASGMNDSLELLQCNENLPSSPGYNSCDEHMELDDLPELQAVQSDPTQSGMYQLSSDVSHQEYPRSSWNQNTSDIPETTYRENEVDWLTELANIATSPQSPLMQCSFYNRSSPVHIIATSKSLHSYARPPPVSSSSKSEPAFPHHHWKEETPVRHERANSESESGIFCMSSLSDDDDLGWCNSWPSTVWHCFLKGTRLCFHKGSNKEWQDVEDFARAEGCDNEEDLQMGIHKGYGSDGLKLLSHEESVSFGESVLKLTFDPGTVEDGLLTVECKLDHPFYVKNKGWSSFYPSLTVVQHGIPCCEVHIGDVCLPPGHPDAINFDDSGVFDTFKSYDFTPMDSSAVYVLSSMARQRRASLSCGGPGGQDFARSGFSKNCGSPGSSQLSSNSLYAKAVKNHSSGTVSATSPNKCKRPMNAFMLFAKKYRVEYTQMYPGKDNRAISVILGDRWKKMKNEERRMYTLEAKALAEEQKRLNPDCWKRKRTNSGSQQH", "test": "co-IP; H1299 cells cotransfected with HA-HBP1 and FLAG-p53 or FLAG-Mdm2, lysed 24 h after transfection in IP lysis buffer; IP with anti-HA or anti-FLAG, Western blot with anti-FLAG or anti-HA"}, "[1]": {"molecular_target": "T2, GST-HBP1 (N-terminal GST-tagged, full-length HBP1) (UniProt O60381)", "T2 sequence": "T1 sequence", "test": "pull-down; GST pull-down: purified GST or GST-tagged proteins on glutathione-Sepharose beads overnight at 4 °C, His-tagged proteins added for 4 h at 4 °C, washed three times, eluted, Western blot; both purified"}, "[2]": {"molecular_target": "T3, high-mobility group box-containing protein 1 (HBP1), endogenous (human (endogenous in A549 and WI-38)) (UniProt O60381)", "T3 sequence": "T1 sequence", "test": "co-IP; endogenous proteins, WI-38 cells (young and senescent) lysed with IP lysis buffer; IP with anti-HBP1, Western blot with anti-Mdm2 and anti-TCF4"}, "[3]": {"molecular_target": "T3, high-mobility group box-containing protein 1 (HBP1), endogenous (human (endogenous in A549 and WI-38))", "test": "co-IP; endogenous proteins, A549 whole cell lysates in IP lysis buffer (25 mM Tris-HCl pH 7.4, 150 mM NaCl, 1% Nonidet P-40, 1 mM EDTA, 5% glycerol); IP with anti-p53 (9282), anti-HBP1 or anti-Mdm2 and protein A-Sepharose overnight at 4 °C, Western blot; in Fig. 4B (right) cells with pLL3.7 or shHBP1, IP with anti-p53"}}, "note": "Results are given in words; binding and its absence hold for the method and conditions named. For some assays here: In cells and extracts the contact can be indirect. Some entries that bind do so weakly or less than the wild type. For some assays here: Sequences can lack the tags named with a protein."}
{"substance": "FLAG-tagged Mdm2 (from UniProt Q00987 1-491)", "values": [{"measurement": "binding", "setting": "HA-tagged HBP1", "result": "binds"}]}
{"substance": "FLAG-tagged p53 (from UniProt P04637 1-393)", "values": [{"measurement": "binding", "setting": "HA-tagged HBP1", "result": "binds"}]}
{"substance": "His-Mdm2 (from UniProt Q00987 1-491)", "values": [{"measurement": "binding", "setting": "[1]", "result": "binds"}]}
{"substance": "His-p53 (from UniProt P04637 1-393)", "values": [{"measurement": "binding", "setting": "[1]", "result": "binds"}]}
{"substance": "Mdm2, endogenous (from UniProt Q00987 1-491)", "values": [{"measurement": "binding", "setting": "[2]", "result": "binds"}, {"measurement": "binding", "setting": "[3]", "result": "binds"}]}
{"substance": "TCF4, endogenous (from UniProt Q9NQB0 1-619)", "values": [{"measurement": "binding", "setting": "[2]", "result": "binds"}]}
{"substance": "p53, endogenous (from UniProt P04637 1-393)", "values": [{"measurement": "binding", "setting": "[3]", "result": "binds"}]}
